Out of some 310,000 compounds screened, about 11,000 (3.5%) were called active. The shares of active, inactive and inconclusive entries below differ from those in the screen. Calls follow the shape of the dose curve; as a rule, active = well fitted inhibition curve with a large enough effect; inconclusive = small, poorly fitted or top-dose-only effect, or effect the other way; inactive = flat fitted curve, though single readings scatter. Potencies of inconclusive entries are left out as doubtful fits.
Assay: VP16 counterscreen qHTS for inhibitors of ROR gamma transcriptional activity;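 also: Gal4-VP16 expression switched on by copper sulfate through the metallothionein promoter; nearly all actives have a fitted effect of over 50% in size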
Settings: Drosophila S2 Gal4-VP16 UAS-luciferase, luminescence, 20 h; series mostly up to 53.6 µM
Potency is read from the fitted curve at half-maximal effect; tags tell the direction and shape of the fitted curve.

Row | SMILES | Potency
1 | COc1ccc(NC(=O)Nc2cc(C(C)(C)C)on2)cc1OC | inconclusive [inhibitor, single point]
2 | FC(F)(F)c1cccc(NC(=S)NC(c2ccccc2)c2ccccc2)c1 | active: 6.31 µM
3 | CC(C)Cc1nnc(NC(=O)CCC(=O)NCCc2ccccc2)s1 | inconclusive [inhibitor, single point]
4 | O=C(N/N=C/c1c[nH]c2c1ccc1ccccc12)c1ccc([N+](=O)[O-])cc1 | inactive
5 | Cc1cccc(CNc2ncnc3ccc(-c4ccc(C(=O)N(C)C)cc4)cc23)c1 | inconclusive [inhibitor, single point]
6 | CC(=O)NCC(=O)N(C)C(C(=O)Nc1ccc(C(C)C)cc1)c1ccccc1 (configuration not stated) | inactive
7 | COc1ccc(C(=O)NC(=S)Nc2ccc(N3CCN(C(C)=O)CC3)cc2)cc1[N+](=O)[O-] | active: 17.8 µM
8 | CC1CCN(Cc2c(C(=O)N/N=C/c3ccc(C(F)(F)F)cc3)nnn2-c2nonc2N)CC1 | inconclusive [inhibitor, single point]
9 | CCCCn1c(O)c(/C=C/C=C/C=Nc2ccccc2)sc1=S | inconclusive [activator, single point]
10 | CCOc1ccc(C(=O)O/N=C(\N)c2ccccn2)cc1 | active: 10 µM
11 | CC(C(Sc1ccccc1N)c1ccccc1)[N+](=O)[O-] (configuration not stated) | inconclusive [inhibitor, single point]
12 | CC(=O)Nc1cccc(/C(C)=N/NC(=O)c2c(-c3ccccc3Cl)noc2C)c1 | active: 20 µM
13 | CCOC(=O)c1ccc(N2C(=O)C3C(C2=O)C(C(=O)c2ccc(Cl)cc2)N2CCCC32)cc1 (configuration not stated) | inconclusive [inhibitor, single point]
14 | CCC(=O)NC(=S)Nc1ccc(-c2nc3ccccc3s2)cc1 | inconclusive [inhibitor, partial curve]
15 | COc1ccc(/C(N)=N/OC(=O)c2c(-c3ccccc3Cl)noc2C)cc1OC | active: 10 µM
16 | O=C(NNC(=O)c1csc(-c2cnccc2C(F)(F)F)n1)c1ccc(C(F)(F)F)cc1 | inconclusive [inhibitor, single point]
17 | COc1ccc(NC(=O)c2cc(C(C)C)on2)c(OC)c1 | active: 7.08 µM
18 | O=C(N/N=C/c1ccc2cccnc2c1)c1ccco1 | active: 11.2 µM
19 | O=C(NCc1ccccc1)c1ccc(-c2ccccc2C(F)(F)F)o1 | inconclusive [inhibitor, partial curve, poor fit]
20 | CCCCn1c(CNC(=O)C(C)(C)C)nc2ccccc21 | inconclusive [inhibitor, single point]
21 | CC(CCc1ccccc1)NC(=O)c1cccc([N+](=O)[O-])c1 (configuration not stated) | inconclusive [activator, single point]
22 | Cc1ccc2nc(-c3cccnc3)c(Nc3ccccc3C)n2c1 | inactive
23 | Cc1nc2ccccc2c(=O)n1/N=C/c1c(O)ccc2oc3c(c12)CCCC3 | inconclusive [inhibitor, single point]
24 | O=C(NC(=S)N(CCO)Cc1ccccc1)c1ccc(S(=O)(=O)N2CCCC2)cc1 | active: 4.47 µM

Row | SMILES | Potency
25 | CCOc1ccc(/C=C2\SC(=S)N(NS(=O)(=O)c3ccccc3)C2=O)cc1OC | inactive
26 | C/C(=C\C(=O)c1ccc(Cl)s1)N(C)C | inconclusive [inhibitor, single point]
27 | CC1Cc2nc(SCC(=O)NCc3ccco3)n(Cc3ccccc3)c(=O)c2S1 (configuration not stated) | inconclusive [activator, single point]
28 | CC1Sc2ccc(S(=O)(=O)N3CCC(C(=O)Nc4ccc(Cl)cc4)CC3)cc2NC1=O (configuration not stated) | inconclusive [inhibitor, single point]
29 | Nc1c(Br)cc2oc(-c3ccccc3)nc2c1Br | inconclusive [activator, full curve, poor fit]
30 | CC(=O)Nc1ccc(S(=O)(=O)N2CCN(CC(O)COc3ccc4ccccc4c3)CC2)cc1 (configuration not stated) | inconclusive [inhibitor, single point]
31 | CC(=O)Nc1cccc(N(C)C)c1 | inactive
32 | CC(C)NC(=S)NC(=O)c1ccc(-c2ccccc2)cc1 | active: 3.16 µM
33 | Cc1cc(C)c(C)c(C(=O)CSc2nnc(-c3ccc4[nH]c(C)c(C)c4c3)o2)c1C | inconclusive [inhibitor, single point]
34 | COc1ccc(C2CC(=O)Oc3c(C(CCN4CCCC(C)C4)c4ccc(N(C)C)cc4)c(OC)cc(OC)c32)cc1 (configuration not stated) | inactive
35 | COCCNC(=O)c1cc(-c2ccc(Cl)c(Cl)c2)on1 | inconclusive [activator, full curve, poor fit]
36 | Cc1ccc(Nc2c(-c3ccccn3)nc3cccc(C)n23)cc1 | inconclusive [inhibitor, single point]
37 | COc1cc(C(=O)NNC2=NC(C)(C)Cc3cc(C)c(C)cc32)cc(OC)c1OC | inconclusive [inhibitor, single point]
38 | Cc1nc(-c2ccccn2)sc1C(=O)Nc1ccc(Cl)c(Cl)c1 | inactive
39 | COc1cc2c(cc1OC)CN(C(=O)CN1CCN(S(=O)(=O)c3ccccc3Br)CC1)CC2 | inactive
40 | NC(=S)N/N=C/c1c[nH]c2ccc(OCc3ccccc3)cc12 | active: 4.47 µM
41 | CC1=NN(C(=O)c2ccco2)C(O)(c2ccccc2)C1 (configuration not stated) | active: 6.31 µM
42 | CCOC(=O)Cn1nnnc1C(CC)N(Cc1cc2ccc(C)cc2[nH]c1=O)C1CCCC1 (configuration not stated) | inactive
43 | CCOc1ccc(-c2c(C(=O)N/N=C/c3sccc3C)nnn2-c2nonc2N)cc1 | active: 8.91 µM
44 | CC(C)Nc1ncnc2c1cnn2Cc1ccccc1Cl | inconclusive [inhibitor, single point]
45 | O=C(NCc1cc2ccccc2[nH]1)c1ccccc1F | inactive
46 | COc1ccccc1C1=Nn2c(nnc2-c2ccccc2OC)SC1 | inconclusive [inhibitor, single point]
47 | Cc1nn2cc(-c3ccc(-c4ccccc4)cc3)nc2s1 | inconclusive [inhibitor, partial curve, poor fit]
